# Reference: PubChem BioAssay AID360 (National Center for Advancing Translational Sciences (NCATS), 2006)
# About 550 (1.1%) of roughly 48,000 compounds were called active. Inconclusive results (about 4%) are left out. Cut-off read from the data, not from the text of the source: active = potency below about 15 µM; inconclusive = mostly about 16 µM to 33 µM; inactive = weaker than that. Some of the results follow.
# Biological target: Lysosomal acid glucosylceramidase (Homo sapiens) (UniProt P04062)
# Sequence of UniProt P04062 (P04062 whole entry, looked up): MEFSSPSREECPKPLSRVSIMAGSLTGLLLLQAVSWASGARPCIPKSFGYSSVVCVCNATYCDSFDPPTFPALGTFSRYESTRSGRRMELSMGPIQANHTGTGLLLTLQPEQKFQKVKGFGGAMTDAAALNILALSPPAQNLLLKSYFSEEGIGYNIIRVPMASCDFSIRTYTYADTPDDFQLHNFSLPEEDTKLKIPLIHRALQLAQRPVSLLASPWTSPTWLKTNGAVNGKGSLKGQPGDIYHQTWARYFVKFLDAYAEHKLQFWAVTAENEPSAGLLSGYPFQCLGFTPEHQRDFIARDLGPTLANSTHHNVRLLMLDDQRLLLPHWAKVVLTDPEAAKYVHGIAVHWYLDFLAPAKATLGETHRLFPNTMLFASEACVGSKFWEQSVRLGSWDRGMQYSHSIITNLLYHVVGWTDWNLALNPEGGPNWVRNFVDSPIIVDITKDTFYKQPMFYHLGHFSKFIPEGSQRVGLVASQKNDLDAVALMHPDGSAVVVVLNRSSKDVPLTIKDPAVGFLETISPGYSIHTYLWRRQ
# Test: Glucocerebrosidase;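 note: the screen sought inhibitors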
# Conditions: purified enzyme, resorufin glucoside fluorescence (screen aimed at inhibitors), 20 min; series mostly up to 77 µM
# In short: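 Normal human glucocerebrosidase (0.2 nM final) was assayed with resorufin β-D-glucopyranoside (30 uM final) in 50mM citric acid/KH2PO4, 10mM sodium taurocholate, 0.01% tween-20, pH 5.9. Compounds were titrated; fluorescence (Ex 548, Em 600) read after 20 min at RT.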
# Potency is the fitted concentration of half-maximal effect.
row,SMILES,Potency
1,CCc1c(C)sc(NC(=O)c2cnn3cccnc23)c1C#N,inactive: > 76.9 µM
2,Cc1nnc(NC(=O)CN2C(=O)c3ccccc3S2(=O)=O)s1,inactive: > 76.9 µM
3,COc1ccccc1N1CCN(C(=O)c2ccc3nc(-c4ccco4)c(-c4ccco4)nc3c2)CC1,inactive: > 76.9 µM
4,CCOC(=O)Cn1c(=N)n(Cc2ccccc2)c2ccccc21,inactive: > 76.9 µM
5,CCOC(=O)c1ccc2c(c1)nc(SCC(=O)N1CCCCC1)n2CC,inactive: > 76.9 µM
6,Cc1nc2ccc(S(=O)(=O)NCC(=O)N3CCN(c4ccccn4)CC3)cc2s1,inactive: > 76.9 µM
7,O=C(O)c1ccc(C2SCC(=O)N2Cc2ccccc2)cc1 (centres undefined),inactive: > 76.9 µM
8,CCOc1cc(C2Nc3ccccc3C(=O)N2c2ccccc2)ccc1O (centres undefined),inactive: > 76.9 µM
9,C/C(=C1/SC(N2CCOCC2)=NC1=O)c1ccc(Cl)cc1,inactive: > 76.9 µM
10,CCCn1c(C(O)c2ccc3c(c2)OCO3)nc2ccccc21 (centres undefined),inactive: > 76.9 µM
11,Cc1cc(-c2cccs2)c2c(n1)sc1c(=O)[nH]c(=O)[nH]c12,inactive: > 76.9 µM
12,O=C(CSc1nc(-c2ccccc2)cc(=O)[nH]1)N1CCOCC1,inactive: > 76.9 µM
13,Cc1ccc(OCc2nnc(SCc3cc(=O)[nH]c4ccccc34)o2)cc1,inactive
14,CCOC(=O)c1[nH]c(C)c(C(=O)Nc2ccc3c(c2)OCCO3)c1C,inactive: > 76.9 µM
15,CCN(CC)c1ccc(NC(=O)CCCCCN2C(=O)c3ccccc3C2=O)cc1,inactive: > 76.9 µM
16,CC1(C)CC2CC(C)(CN2C(=O)COC(=O)Cn2[nH]c(=O)c3ccccc3c2=O)C1 (centres undefined),inactive: > 76.9 µM
17,COC(=O)c1ccc(NC(=O)C2CCCN2S(=O)(=O)c2ccc(F)cc2)cc1 (centres undefined),inactive: > 76.9 µM
18,O=C(c1ccco1)[C@@H]1[C@@H]2C(=O)N(c3ccc(F)cc3)C(=O)[C@@H]2C2c3ccccc3C=CN21 (some centres undefined),inactive: > 76.9 µM
19,CCOC(=O)C1CCCN(C(=O)c2ccc(CS(=O)(=O)Cc3ccccc3C)o2)C1 (centres undefined),inactive: > 76.9 µM
20,CCC(=O)Nc1cc(-c2nnc(OC)c3ccccc23)ccc1N1CCOCC1,inactive: > 76.9 µM
21,Cc1cccc2cc(C#N)c(NCCNC(=O)NC3CCCCC3)nc12,inactive: > 76.9 µM
22,CN(Cc1ccccc1)Cc1nc2c([nH]1)c(=O)n(C)c(=O)n2C,inactive: > 76.9 µM
23,O=C(NCc1cccs1)C1CCN(c2nccs2)CC1,inactive: > 76.9 µM

row,SMILES,Potency
1,c1ccc(-c2nn3c(-c4ccccc4)nnc3s2)cc1,inactive: > 76.9 µM
2,Cc1cc(C(=O)c2cccs2)c(N)s1,inactive: > 76.9 µM
3,COc1ccc(C2C(C(=O)c3sc(C)nc3C)=C(O)C(=O)N2CCN2CCOCC2)cc1 (centres undefined),inactive: > 76.9 µM
4,CCc1c(C)sc(NC(=O)c2cc(-c3cc(OC)ccc3OC)on2)c1C#N,inactive: > 76.9 µM
5,CN(C)S(=O)(=O)CC12CCC(CC1=O)C2(C)C (centres undefined),inactive: > 76.9 µM
6,c1ccc(-n2nc3c(ccc4cnnc43)[nH]2)cc1,inactive
7,CSc1nc(C)cc(OCNC(=O)c2cccs2)n1,inactive: > 76.9 µM
8,CCOc1ccc(NC(=O)CN(C)c2nnnn2-c2ccccc2)cc1OCC,inactive: > 76.9 µM
9,CCCCn1c(NC(=O)c2ccccc2)c(C#N)c2nc3ccccc3nc21,inactive: > 76.9 µM
10,COc1ccc(OC)c(C2C(C#N)=C(N)Oc3c2c(C)nn3-c2cccc(Cl)c2)c1 (centres undefined),inactive: > 76.9 µM
11,Cc1cc(-n2c(C)cc(C(=O)COC(=O)CN=C3NS(=O)(=O)c4ccccc43)c2C)no1,inactive: > 76.9 µM
12,CCn1cc(C(=O)N2CC(C)CC(C)C2)c(=O)c2cc(S(=O)(=O)N3CCOCC3)ccc21 (centres undefined),inactive: > 76.9 µM
13,CCOC(=O)c1ccc(NC(=O)C2C3CCC(C3)C2C(=O)O)cc1 (centres undefined),inactive: > 76.9 µM
14,Fc1cccc(Cl)c1Cn1nnc2c(N3CCC4(CC3)OCCO4)ncnc21,inactive: > 76.9 µM
15,CCOC(=O)N1CCN(C2=NC3(CCCCC3)C(C#N)C(=O)N2)CC1 (centres undefined),inactive: > 76.9 µM
16,O=C(CSc1nc(-c2ccco2)cc(C(F)(F)F)n1)NCCc1ccccc1,inactive: > 76.9 µM
17,Cc1ccc(S(=O)(=O)N2CCOCC2)cc1C(=O)Nc1c(C)n(C)n(-c2ccccc2)c1=O,inactive: > 76.9 µM
18,CS(=O)(=O)N(CC(=O)NCCSc1ccc(Cl)cc1)c1ccc2c(c1)OCO2,inactive: > 76.9 µM
19,Cn1c(=O)n(CCc2ccccc2)c(=O)c2c1nc1n2CCCN1Cc1ccccc1,inactive
20,COC(=O)Cn1cnc2c(nnn2Cc2ccc(Cl)cc2)c1=O,inactive: > 76.9 µM
21,Cc1ccc(C(=O)N(CN2CCCC2=O)c2ccc(F)cc2)cc1C,inactive: > 76.9 µM
22,CCOC(=O)N1CCN(c2c(-c3ccc(C)cc3)c(=O)c2=O)CC1,inactive: > 76.9 µM
23,Cc1ccc(CNC2=NCCCCC2)n1C,inactive: > 76.9 µM

row,SMILES,Potency
1,Cc1ccc(S(=O)(=O)Cc2ccc(C(=O)NCc3ccc4c(c3)OCO4)o2)cc1,inactive: > 76.9 µM
2,COc1ccc(NC(=O)C2C3C=CC(C3)C2C(=O)NCc2ccco2)cc1 (centres undefined),inactive: > 76.9 µM
3,Cc1ccc(/C(O)=C2\C(=O)C(=O)N(CCCN(C)C)C2c2ccccn2)cc1 (centres undefined),inactive: > 76.9 µM
4,CC(C)OC(=O)CSc1nnc2n1C(C)(C)Cc1ccccc1-2,inactive: > 76.9 µM
5,COc1ccc(CC(CC(=O)O)C(=O)Nc2ccc(OC)cc2)cc1 (centres undefined),inactive: > 76.9 µM
6,Cc1nnc(SCCn2c(N3CCN(Cc4ccccc4)CC3)nc3c2c(=O)[nH]c(=O)n3C)s1,inactive: > 76.9 µM
7,CCC(C)C(NC(=O)c1ccccc1NC(=O)c1ccco1)C(=O)O (centres undefined),inactive: > 76.9 µM
8,CCCC(=O)Nc1ccc(Cl)c(NC(=O)CC)c1,inactive: > 76.9 µM
9,O=C(N1CCCCCC1)N1CCN(S(=O)(=O)N2CCOCC2)CC1,inactive: > 76.9 µM
10,Cc1ccc(-c2noc(CCC(=O)N(C)c3ccccc3C)n2)cc1,inactive: > 76.9 µM
11,CCn1cc(C2Nc3ccccc3C(=O)N2O)c(C)n1 (centres undefined),inactive: > 76.9 µM
12,CC(=O)Nc1cccc(-c2cnc3ccccc3n2)c1,inactive: > 76.9 µM
13,Cc1nc2ncnn2c(C)c1CCC(=O)N1CCN(c2ccccn2)CC1,inactive: > 76.9 µM
14,COCC(C)n1c(C)cc(C(=O)COC(=O)c2oc3ccccc3c2C)c1C (centres undefined),inactive: > 76.9 µM
15,Cc1ccnc(SCC(=O)Nc2oc(-c3ccccc3)c(-c3ccccc3)c2C#N)n1,inactive: > 76.9 µM
16,CC(=O)NC1CCN(C(=O)N2CCCC2)CC1,inactive: > 76.9 µM
17,COc1cc(-c2nnc3sc(-c4ccco4)nn23)cc(OC)c1OC,inactive: > 76.9 µM
18,Cc1cc(N2CCCC2)n2nc(C)c(-c3ccccc3)c2n1,active: 7.9 µM
19,O=S1(=O)CC(NCc2ccccc2)C(Nc2ccccc2)C1 (centres undefined),inactive: > 76.9 µM
20,CCSc1oc(-c2ccco2)nc1S(=O)(=O)c1ccc(F)cc1,inactive: > 76.9 µM
21,COc1ccc(C(c2nnnn2Cc2cccs2)N2CCC(C(N)=O)CC2)c(OC)c1 (centres undefined),inactive: > 76.9 µM
22,Cc1cc2c(c(=O)n1CCCn1ccnc1)C(c1ccco1)C(C#N)=C(N)O2 (centres undefined),inactive: > 76.9 µM
23,COC(=O)c1ccc(C)c(NC(=O)C2COc3ccccc3O2)c1 (centres undefined),inactive: > 76.9 µM

row,SMILES,Potency
1,COc1ccc(-n2nnnc2SCC(=O)c2ccc3c(c2)OCCO3)c(OC)c1,inactive: > 76.9 µM
2,CCCC(=O)Nc1cc(=O)[nH]c2ncnn12,inactive: > 76.9 µM
3,Cc1cn(C2CC3OCC3O2)c(=O)[nH]c1=O (centres undefined),inactive: > 76.9 µM
4,CCn1nnnc1SCCSc1nnnn1CC,inactive: > 76.9 µM
5,CCCc1cc(=O)[nH]c(SCc2cc(C(=O)OC)c(C)o2)n1,inactive: > 76.9 µM
6,Cc1ccc(-n2c(C)cc(C(=O)COC(=O)c3c(C)noc3C)c2C)cc1,inactive: > 76.9 µM
7,Cc1nn(-c2ccccc2)c2sc(C(=O)N3CCc4ccccc4C3)cc12,inactive: > 76.9 µM
8,Cc1nc(/C=[N+](\[O-])C(C)(C)/C=N/O)n(O)c1C,inactive: > 76.9 µM
9,CCN(c1ccccc1)S(=O)(=O)c1ccc2[nH]cc(C(=O)N3CCOCC3)c(=O)c2c1,inactive: > 76.9 µM
10,CCCOn1c(OCC(C)C)nc2ccccc2c1=O,inactive: > 76.9 µM
11,COC(=O)C(C)n1cnc2c(nnn2Cc2ccc(Cl)cc2)c1=O (centres undefined),inactive: > 76.9 µM
12,Cc1cccc(C(CC(=O)N2CCCC2)c2ccccc2)c1O (centres undefined),inactive: > 76.9 µM
13,CSc1ncc(Cl)c(C(=O)Nc2nnc(SC)s2)n1,inactive: > 76.9 µM
14,CC(=O)N(CC1CCCO1)c1nnc(-c2ccccn2)s1 (centres undefined),inactive: > 76.9 µM
15,O=C(O)C1C2CCC(C2)C1C(=O)NCc1ccco1 (centres undefined),inactive: > 76.9 µM
16,CC(Sc1nc2ccccc2o1)C(=O)O (centres undefined),inactive: > 76.9 µM
17,CCOC(=O)C1CCCN(Cc2nc(N)nc(Nc3ccc(C)cc3)n2)C1 (centres undefined),inactive: > 76.9 µM
18,CC1Cc2ccccc2N1C(=O)CSc1nnc(Cn2nnc3ccccc32)n1C (centres undefined),inactive: > 76.9 µM
19,COc1ccc(N2CCN(CC(=O)Nc3ccc(-n4cnnn4)cc3)CC2)cc1,inactive: > 76.9 µM
20,COC(=O)c1ccc(C(=O)OC)c(NC(=O)c2oc(C)nc2C)c1,inactive: > 76.9 µM
